Variants at the floor of the assay are shown more often than the library holds them.
B1: TPR 5TU (parent)
chain: GGAUCUUCUCGAUCUAACAAAAAAGACAAAUCUGCCACAAAGCUUGAGAGCAUCUUCGGAUGCAGAGGCGGCAGCCUUCGGUGGCGCGAUAGCGCCAACGUUCUCAACUAUGACACGCAAAACGCGUGCUCCGUUGAAUGGAGUUUAUCAUG

Variants of: B1
Experiment: polymerase ribozyme fitness, log enrichment relative to wild type (log ratio); higher = more active; in vitro selection for triplet polymerase activity
Procedure, shortened: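 Mutant libraries for each subunit of a heterodimeric triplet polymerase ribozyme were made by PCR and then transcribed. Each library underwent one round of in vitro selection in triplicate: annealing with a biotinylated primer, the partner subunit and triplets, frozen incubation at −7 °C, gel excision of extended constructs, streptavidin-bead capture and RT-PCR. Input and output libraries were Illumina-sequenced, and only genotypes with ≥10 input reads and ≥1 read per output were kept. Fitness is the logarithm, base 2, of genotype enrichment over wild-type enrichment, computed from inverse-variance-weighted replicate averages.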

Variant | polymerase ribozyme fitness (log ratio)
GGAUCUUCUCGAUCUAACAAAAAAGAGAAAUCUGCCACAAAGCUUGAGAGCAUUUUCGGAUGCAGAGGCGGCAGCCUUCGGUGGCUCGAUCGCGCCAACGUUCUCAACUAUGACACGCAAAACGAGUGCUCCGUGGGAUGGAGUUUAUCAUG [C27G C54U G86U A91C C125A U135G A137G] | ≤ -4.2
GGAUCUUCUCGAUCUAACAAAAAAGAGAAAUCUGCCACAAAGCUUGAGAGCAUCUUCGGAUGCAGAGGCGGCAGCCUUCGGUGGAGCGAGAGCGCCAACGUUCUCAACUAUGACACGCAAAACGCGUGCUCCGUUGAAUGGAGUUUAUCAUG [C27G C85A U90G] | ≤ -4.2
GGAUCUUCUCGAUCUAACAAAAAAGAGAAAUCUGCCACAAAGCUUGAGAGCAUCUUCGCAUGCAGAGGCGGCAGCCUUCGGUGGCGCCAUAGCGCCAACGUUCGCAACUAUGACACGCAAAACGCGUGCUCCGAUGAUUGGAGUUUAUCAUG [C27G G59C G88C U104G U134A A138U] | ≤ -4.2
GGAUCUUCUCGAUCUAACAAAAAAGAGAAAUCUGCCACAAAGCUUGACAGCAUCUUCGGAUGCAGAGGCGGCAGCCUUCAAUGGCGCGAUAGCGCCAACGUUCUCAACUAUGGCACGAAAAACGCGUGCUCUGUUCAAUGGAGUUUAUCGUG [C27G G48C G80A G81A A113G C118A C132U G136C A150G] | ≤ -4.2
GGAUCUUCUCGAUCUAACAAAAAAGAGAAAUCUGCCACAAAGCUUGAGAGCAUCUUCGGAUGCAGAGGCGGCAGCCUUCGGUGGCGAGAUAGCGCCAACGUUCUCAACUAUGACACGCAAAACGCGUGCUCCGUUGAAUGGAGUUUAUCAUG [C27G C87A] | ≤ -4.2
GGAUCUUCUCGAUCUAACAAAAAAGAGAAAUCUGCCACAAAGCUUGAGAGCAUCUUCGGAUGCAGAGGCGGCAGCCUUCGGUGGCGUGAUAGCGCCAACGUUCUCAACUAUGACACGCAAAACGCGUGCUCCGUUGAAUGGAGUUUAUCAUG [C27G C87U] | -3.97
GGAUCUUCUCGAUCUAACAAAAAAGAGAAAUCUGCCACAAAGCUUGAGAGCAUCUUCGUCUGCAGAGGCGGCAGCCUUCGGUGGCGCGAUUGCGCCAACGUUCUUAACUAUGACACGCAAAACGCGUGCUCCGUUGAAUGGAGUCUAUCAUG [C27G G59U A60C A91U C105U U145C] | ≤ -4.2
GGAUCUUCUCGAUCUAACAAAAAAGAGAAAUCUGCCACAAAGCUUGAGAGCAUCUUCGGAUGCAGACGCGGCAGCCUUCGGUGGCGCGAUAGCGCCAACGUUCUCAACUAUGACACGCAAAACGCGUGCUCCGUUGAAUGAAGUUUUUCAUA [C27G G67C G141A A147U G152A] | ≤ -4.2
GGAUCUUCUCGAUCUAACAAAAAAGAGAAAUCUGCCAUAAAGCUUGAGAGCAUCCUCGGAUGCAGGGGCGGCAGCGUCCGGUGGCGCGAGAGCGCCAACGUUCUCAACUAUGACACGCAAAACGCGUGCUCCGUUGAAUGGAGUUUAUCAUG [C27G C38U U55C A66G C76G U78C U90G] | ≤ -4.2
GGAUCUUCUCGAUCUAACAAAAAAGAGAAAUCUGCCACAAAGCUUAAGAGCAUCUUCGGAUGCAGAGGCGGCAGCCUUCGGUGGAGCGAUAGCGACUACGUUCUCAACUGUGACACGCAAAACGCGUGCUCCGUUGAAUGGAGUUUAUCAUG [C27G G46A C85A C95A A97U A110G] | ≤ -4.2
GGAUCUUCUCGAUCUAACAAAAAAGAGAAAUCUGCGACAAAGCUUGAGAGCAUCUUCGGAUGCAGAGGCGGCAGCCUUCGGUGGCGCGAUAGCGCCAACGUUCUCAACUAUGACACGCAUAACGCGUGCUCCGUUGAAUGGAGUUUAUCAUG [C27G C36G A120U] | ≤ -4.2
GGAUCUUCUCGAUCUAACAAAAAAGAGAAAUCUGCCACAAAGCUUGAGAGCAUCUUCGGAUGCAGAGGCGGCAGCCUUCGGUGGAGCGAUAGCGCCAACGUUCUCAACUAUGACACGCAAAACGCGUGCGCCGUUUAAUGGAGUAUAUCAUG [C27G C85A U130G G136U U145A] | ≤ -4.2
GGAUCUUCUCGAUCUAACAAAAAAGAGAAAUCUGCCACAAAGCUUGAGAACAUCUUCGGAUGCAGAGGCGGCAGCCUUCGGUGGCGCGAUAGCGCCAACGUUCUCAACUAUGACACGAAAAACGCGUGCUCCGUUGAAUGGAGUUUAUCAUG [C27G G50A C118A] | ≤ -4.2
GGAUCUUCUCGAUCUAACAAAAAAGAGAAAUCUCCCACAAAGCUUGCGAGCAUCUUCGGAUGCAGAGGCGGCAGCCUUCUGUGGCGCGAUAGCGCCAACGUUCUCAACUAUGACACGCAAAACGCGUGCUCCGUUGAAUCGAGUUUAUCAUG [C27G G34C A47C G80U G140C] | ≤ -4.2
GGAUCUUCUCGAUCUAACAAAAAAGAGAAAUCUGCCACAAAGCUUGAGAGCAUCUUCGGAUGCAGAGGCGGCAGGCUUCGGUGGCGCGAUAGAGCCAACGUUGUCAACUAUGACACGCAAAACGCGUGCUCCGAUGAAUGGAGUUUAUCAUG [C27G C75G C93A C103G U134A] | ≤ -4.2
GGAUCUUCUCGAUCUAACAAAAAAGAGAAAUCUGCCACAAAGCUUGAGAGUAUCUUCGGAUGCAGAGGCGGCAACCUUCGGUGGCGCGAUAGUGGCAACGUUCUCAACUAUGACACGCAAAACGCGUGCUCCGUUAAAUGGAGUUUAUCAAG [C27G C51U G74A C93U C95G G136A U151A] | ≤ -4.2
GGAUCUUCUCGAUCUAACAAAAAAGAGAAAUCUUCCACAAACCUUGAGAGCAUCUUCGGAUGCAGAGGCGCCAGCCUUUGGUGGGGCGAUAGCGCCAACGUUCUUAACUAUGACACUCAAAACGCGUGCUCCGUUGAAUGGAGUUUAUCAUG [C27G G34U G42C G71C C79U C85G C105U G117U] | ≤ -4.2
GGAUCUUCUCGAUCUAACAAAAAAGAGAAAUCUGCCACAAAGCUUGAGAGCAUCUUGGGAUGCAGAGGCGGCAGCCUUCGGUGGCGUGAUAGCGCCAACGUUCUCAACUAUGACACGCAAAACGCGUGCUCCGUUAAAUGGAGUUGAUCAUG [C27G C57G C87U G136A U146G] | ≤ -4.2
GGAUCUUCUCGAUCUAACAAAAAAGAGAAAUCUGCCACAAAGUUUGAGAUCAUCUUCGGAUGCAGAGCCGGCAGCCUUCGGUGGCGCGAAAACGCCAACUUUCUCAACUAUGACACGCAAAACGCGUGCUCCGUGGAAUGGAGUUUAUCAUG [C27G C43U G50U G68C U90A G92A G100U U135G] | ≤ -4.2
